PubChem BioAssay AID1030 (National Center for Advancing Translational Sciences (NCATS), 2008)
The campaign covered roughly 220,000 compounds. About 16,000 (7.3%) were called active. Inconclusive means that the source gave no clear call. Such entries were picked first, then a sample of the others. The call rests on the fitted dose curve; in most records, active means well fitted inhibition curve with a large enough effect (not every such curve was filed as active); inconclusive means small, poorly fitted or top-dose-only effect, or another doubt; inactive means no such curve, though single readings can be large or run the other way. No potency is given beside an inconclusive call; the fits are too rough.
Potency means the concentration at half of the fitted maximal effect; tags describe the fitted curve by direction and shape.
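Wherever activity, negative = inhibition is given: plate controls were no enzyme wells and a reference inhibitor.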

The compounds below were run against Aldehyde dehydrogenase 1A1 (Homo sapiens) (UniProt P00352) (assay: qHTS Assay for Inhibitors of Aldehyde Dehydrogenase 1 (ALDH1A1)). Conditions: Purified ALDH1A1, NADH fluorescence, propionaldehyde substrate; series mostly up to 75.3 µM; activity, negative = inhibition: at the top concentration.
Chain of UniProt P00352 (P00352 whole entry, looked up): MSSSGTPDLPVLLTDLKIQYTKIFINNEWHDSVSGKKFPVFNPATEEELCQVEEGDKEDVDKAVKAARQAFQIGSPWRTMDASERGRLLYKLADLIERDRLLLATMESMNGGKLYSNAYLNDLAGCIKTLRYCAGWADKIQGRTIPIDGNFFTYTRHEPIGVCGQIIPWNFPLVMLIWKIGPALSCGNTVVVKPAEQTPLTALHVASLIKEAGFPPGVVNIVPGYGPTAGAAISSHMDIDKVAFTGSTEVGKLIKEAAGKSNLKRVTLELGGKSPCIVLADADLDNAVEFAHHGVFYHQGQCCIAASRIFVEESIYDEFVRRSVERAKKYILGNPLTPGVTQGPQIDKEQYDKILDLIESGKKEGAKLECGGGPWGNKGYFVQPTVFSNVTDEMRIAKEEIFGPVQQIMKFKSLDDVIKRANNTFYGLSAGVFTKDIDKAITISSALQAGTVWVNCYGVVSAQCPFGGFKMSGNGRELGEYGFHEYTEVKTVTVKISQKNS
In the case of C/C=C/OC(=O)NC(c1ccccc1)[C@]1(C(C)=O)CCOC1=O (stereo partly specified), the activity, negative = inhibition is reported as inactive: -16.6% [at 13.5 µM].
N#CC1=C2SCN(Cc3ccco3)CN2C(=O)CC1c1c(F)cccc1Cl (stereo unspecified) was tested, and the Potency was active: 8.91 µM.
With COc1c(F)c(F)c(C(=O)Nc2ccccc2N2CCN(C(C)=O)CC2)c(F)c1F the Potency was inconclusive [inhibitor, partial curve].
For CCOC(=O)N1CCN(C(=O)CN(c2cc(Cl)ccc2OC)S(=O)(=O)c2ccccc2)CC1, the Potency was active: 25.1 µM.
With CCCCc1c(C)nn(-c2nnc3c4ccccc4n(C)c3n2)c1C the Potency was inconclusive [inhibitor, partial curve].
For C/C(Nc1ccc2oc(=O)ccc2c1)=C1/C(=O)CC2[C@@H]1C2(C)C (stereo partly specified), the Potency was active: 3.98 µM.
With CCC(c1nnnn1CCOC)N(Cc1cc2c(C)cc(C)cc2[nH]c1=O)CC1CCCO1 (stereo unspecified) the Potency was active: 11.2 µM.
COc1ccccc1N=C(C)C1=C(O)CC(c2ccccc2)CC1=O (stereo unspecified) was tested, and the Potency was inconclusive [inhibitor, partial curve, poor fit].
For CC1=C(C(=O)Nc2ccc(Cl)cc2)C(c2ccncc2)C(C#N)=C(SCC(N)=O)N1 (stereo unspecified), the Potency was inconclusive [inhibitor, single point].
For COc1ccc(C(=O)c2sc3nc(C)cc(-c4cccs4)c3c2N)cc1, the “activity, negative = inhibition” value was inactive: -12%.
With CCN(CC)c1ccc(/C=N\NC(N)=O)cc1 the Potency was inconclusive [inhibitor, partial curve].
Cc1occc1C(=O)NNC(=O)c1ccc(Br)o1 was tested, and the “activity, negative = inhibition” value was inactive: 7.28%.
CCOC(=O)C1=C(Cc2ccc(Cl)cc2)C(=O)c2ccccc2C1=O was tested, and the Potency was inconclusive [inhibitor, single point].
In the case of COc1cc(/C=N/Nc2nc3ccccc3[nH]c2=O)ccc1O, the “activity, negative = inhibition” value is reported as inactive: 6.12%.
CSc1n[nH]c2nc3c(c(=O)n12)C1(CCCC1)Cc1ccccc1-3 was tested, and the Potency was inconclusive [inhibitor, partial curve].
For C1CC(CN2CCOCC2)CN(c2nc3nonc3nc2N2CCSCC2)C1 (stereo unspecified), the Potency was inconclusive [inhibitor, single point].
COc1cc(CNc2ncn[nH]2)ccc1OCc1ccccc1C was tested, and the “activity, negative = inhibition” value was inactive: -2.52%.
For COC(=O)C(CC(C)C)Oc1ccc2c(C)cc(=O)oc2c1 (stereo unspecified), the Potency was inconclusive [inhibitor, full curve].
CCCC(=O)c1c(NC)cc(C)oc1=O was tested, and the Potency was inconclusive [inhibitor, partial curve].
In the case of CCCc1cc(=O)[nH]c(SCC(=O)N2CCN(S(=O)(=O)c3ccccc3)CC2)n1, the “activity, negative = inhibition” value is reported as inactive: -11%.
In the case of CNC(=O)NC(=O)CSc1nc2cc(C(=O)OC)ccc2c(=O)n1-c1ccccc1, the Potency is reported as inconclusive [inhibitor, partial curve].
